In US10071110B2, “Phosphonate compounds” (priority 1999, dated 2018):

Tested on: HIV-1
Details: HIV-1 plaque reduction, Table 5 data

hexadecyloxypropyl-adefovir [HDP-ADV]
logs more active than adefovir: more than 5 logs
